PMC4336329 (PLoS ONE, 2015)
Out of some 310,000 compounds screened, about 2,200 (0.71%) showed an effect of 50% or more. Effects have a minus sign here. The list shows a part of the results.

These compounds were tested against human ether-à-go-go-related gene (hERG) potassium channel (human, UniProt Q12809) (assay: primary screen, population patch clamp on CHO cells stably expressing hERG).
human ether-à-go-go-related gene (hERG) potassium channel, sequence (Q12809 whole entry, looked up): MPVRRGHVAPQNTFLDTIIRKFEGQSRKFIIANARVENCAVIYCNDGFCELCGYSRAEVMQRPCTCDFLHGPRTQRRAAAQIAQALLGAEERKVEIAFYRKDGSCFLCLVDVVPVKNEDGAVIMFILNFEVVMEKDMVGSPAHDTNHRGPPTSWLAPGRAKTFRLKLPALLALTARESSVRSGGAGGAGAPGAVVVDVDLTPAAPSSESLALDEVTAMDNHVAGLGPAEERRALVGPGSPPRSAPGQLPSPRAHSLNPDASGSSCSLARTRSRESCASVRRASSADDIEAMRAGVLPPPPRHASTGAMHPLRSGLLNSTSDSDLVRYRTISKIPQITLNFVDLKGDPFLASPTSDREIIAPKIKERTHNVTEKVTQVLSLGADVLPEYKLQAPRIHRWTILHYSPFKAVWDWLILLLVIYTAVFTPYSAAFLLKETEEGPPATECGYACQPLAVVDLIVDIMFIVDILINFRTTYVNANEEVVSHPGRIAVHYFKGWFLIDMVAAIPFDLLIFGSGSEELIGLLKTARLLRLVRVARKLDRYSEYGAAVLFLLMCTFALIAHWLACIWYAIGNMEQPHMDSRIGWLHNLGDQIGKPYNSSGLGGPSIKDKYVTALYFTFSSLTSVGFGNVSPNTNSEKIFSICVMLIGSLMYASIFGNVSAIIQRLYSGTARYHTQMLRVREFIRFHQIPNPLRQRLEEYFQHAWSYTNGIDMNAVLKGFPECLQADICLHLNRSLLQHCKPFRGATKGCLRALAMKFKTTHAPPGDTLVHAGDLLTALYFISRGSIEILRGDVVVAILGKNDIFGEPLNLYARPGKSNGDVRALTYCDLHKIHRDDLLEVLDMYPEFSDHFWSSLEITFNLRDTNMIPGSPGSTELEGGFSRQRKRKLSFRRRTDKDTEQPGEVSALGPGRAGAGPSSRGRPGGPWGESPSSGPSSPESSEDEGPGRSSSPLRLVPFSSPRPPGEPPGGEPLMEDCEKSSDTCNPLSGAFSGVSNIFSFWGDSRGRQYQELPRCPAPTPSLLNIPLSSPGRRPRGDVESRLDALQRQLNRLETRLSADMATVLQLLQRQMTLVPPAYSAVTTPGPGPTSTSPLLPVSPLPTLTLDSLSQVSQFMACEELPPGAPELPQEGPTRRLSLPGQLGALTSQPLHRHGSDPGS

Compound	hERG current change (%, negative = inhibition) at 1uM
O=C(c1ccco1)N1CCC(n2nnc3ccccc32)CC1	-0.447%
Fc1ccc(C(Nc2ccccn2)c2c[nH]c3ccccc23)cc1 (stereo not shown)	4.2%
Cn1c(Cl)c(/C=N/OC(=O)c2cccc(Cl)c2)c2ccccc21	5.17%
CCOc1ccc(N=C2C(=O)N(CN3CCOCC3)c3ccccc32)cc1	-1.4%
Cc1ccc(NC(=S)Nc2ccc(OC(F)F)c(Cl)c2)cc1F	2.35%
Cc1ccccc1CSCC(=O)Nc1ccccc1-c1ccccc1	10.2%
Cc1cccc(NC(=O)CC2Nc3cccc4cccc(c34)NC2=O)c1 (stereo not shown)	-1.11%
CC(=O)/C=C(\C)NCCNc1c(F)c(F)c(CO)c(F)c1F	6.94%
COc1ccc(CCN=CC2=C(O)CCCC2=O)cc1OC	8.07%
CN(CCCNC(=O)Cn1cccc1C(=O)c1ccccc1)C1CCCCC1	-7.02%
Cl.c1ccc(OCC2CCNCC2)nc1	11.4%
Cc1nc2ccccc2c(=O)n1NC(=O)c1c(O)c2c(n(CC(C)C)c1=O)CCCC2	-0.429%
CCOC(=O)C1(Cc2ccccc2C)CCCN(C(=O)COC)C1 (stereo not shown)	14.8%
O=C(CNc1ccccc1)N/N=C/c1ccc([N+](=O)[O-])cc1	13.7%
COc1ccc(CNc2oc(-c3cccc4ccccc34)nc2P(=O)(OC)OC)cc1	12%
CC(=O)c1cccc(Nc2c3c(nc4ccccc24)CCC3)c1.Cl	-13.7%
Cn1c(=O)c2c(nc(SCCN3CCOCC3)n2C)n(C)c1=O	20.1%
Cc1ccc(C(C)C)c(OCC(=O)Nc2ccc3c(c2)nc(CN2CCCC2)n3C)c1	-16.8%
Cc1c(NC(=O)C2CC=CCC2C(=O)O)c(=O)n(-c2ccccc2)n1C (stereo not shown)	-5.81%
O=C(Nc1nc2ccc(F)cc2s1)C1CCN(S(=O)(=O)c2cc([N+](=O)[O-])ccc2Cl)CC1	13.7%
CCC1CCCCN1c1cc(C)nc2cc(-c3cccc(C)c3)nn12 (stereo not shown)	2.95%
Cc1c(C(=O)Nc2ccncc2)sc2nc(-c3ccccc3)cn12	-0.0661%
CCCCCn1c(SCC(=O)OC)nc2c1c(=O)[nH]c(=O)n2C	-35.3%

Compound	hERG current change (%, negative = inhibition) at 1uM
Cc1ccc(COCCN2CCN(S(=O)(=O)c3ccc(C)cc3)CCC2=O)cc1	9.86%
O=C(CNC(=O)c1ccccc1F)OCc1nc2ccccc2s1	10.9%
Cc1onc(-c2c(Cl)cccc2Cl)c1C(=O)Nn1cnnc1	13.1%
COc1ccccc1Cc1noc(COc2cccc(C)c2C)n1	8.14%
Cc1nnsc1NC(=O)OCCCl	2.59%
CN(Cc1nc2c(s1)CCCC2)C(=O)CCc1nnc(-c2ccccc2)o1	3.84%
CCOc1ccccc1NC(=O)CN1C(=O)C(C)SC(C)C1=O (stereo not shown)	10.7%
C=CCC1NS(=O)(=O)OC2CCCC12 (stereo not shown)	11.2%
Cc1cc(/C=C2\SC(=S)N(C)C2=O)c(C)n1-c1ccccc1O	8.22%
CCCCCCCC(=O)Oc1ccc(C(=O)Nc2cc(C)on2)cc1	14.4%
CC1CC(=O)c2cnc(N)nc2C1 (stereo not shown)	-5.65%
CC(C)Nc1cc(N2CCCC2)ccc1[N+](=O)[O-]	5.36%
CC(=O)N1CCCc2cc(S(=O)(=O)N3CCN(c4ccccn4)CC3)ccc21	3.81%
O=C(NCc1ccc2c(c1)OCO2)C1CCCN(S(=O)(=O)c2cccnc2)C1 (stereo not shown)	16.5%
N#CCC(=O)NNC(=S)NC(=O)C(c1ccccc1)c1ccccc1	7.95%
CN(C)/N=C/c1ccc(/C=N/NC(N)=S)o1	13.2%
CCOc1ccc(N(CC(=O)NCC2CCCO2)S(=O)(=O)c2ccc(C)cc2)cc1 (stereo not shown)	6.46%
CCN1CCN(Cc2ccccc2C)CC1	10.5%
Cc1cccc(C(=O)OCC(=O)NC(C)CCc2ccccc2)c1 (stereo not shown)	9.19%
CC(/C=N/NC(=O)c1cccnc1)=C\c1ccco1	15.7%
CC(C)N1C(=O)C2ON(c3ccccc3)C(c3cccs3)C2C1=O (stereo not shown)	8.77%
CC(C)C(=O)NC(c1ccc(N(C)C)cc1)c1c(O)ccc2ccccc12 (stereo not shown)	9.96%
COc1ccccc1/C(O)=C(\C#N)c1nc2ccccc2[nH]1	12.5%

Compound	hERG current change (%, negative = inhibition) at 1uM
O=C(NC1=NCCS1)c1ccc2c(c1)C(=O)N(Cc1ccco1)C2=O	-7.22%
Br.CC(C)Cc1ccc(C2=CSC3=NCCN23)cc1	-60.9%
O=C(CN1C(=O)c2ccccc2S1(=O)=O)NCCC1=CCCCC1	7.27%
Cc1ccc(S(=O)(=O)N(C)c2cc(S(=O)(=O)N3CCOCC3)c(C)cc2C)cc1	6.94%
Cc1nonc1CN(C)C(=O)c1cc(COc2ccc(F)cc2Cl)on1	15.6%
O=C(Cc1ccccc1F)N1CCN(S(=O)(=O)c2ccc(Cl)cc2)CC1	20.7%
O=C(C1CCN(C2CCN(Cc3ccsc3)CC2)CC1)N1CCOCC1	12.6%
COc1ccc(S(=O)(=O)Nc2noc3ccccc23)cc1OC	14.5%
COc1cc(C)c(C(C)C)cc1S(=O)(=O)N1CCOCC1	-1.94%
C=CCNC(=O)c1ccc2c(c1)S(=O)(=O)c1ccccc1C2=O	-9.65%
O=C(CSc1nnc(-c2cccnc2)n1Cc1ccco1)c1ccccc1	-0.151%
Cc1ccc2c(c1)C(c1ccccc1)N(C(=O)c1ccc(F)cc1)CC(=O)N2 (stereo not shown)	13.6%
COc1ccc(C(=O)C(OC(=O)CNC(=O)c2ccco2)c2ccccc2)cc1 (stereo not shown)	6.88%
CCCN(CCC)C(=O)Cn1c(=O)c2ccccc2n2c(=S)sc(-c3ccccc3C)c12	11.6%
CC(=O)c1ccn(S(=O)(=O)c2ccccc2)c1	4.95%
COc1ccc(NC(=O)C/C(C)=N/NC(=O)C(=O)NC(C)C)c(OC)c1	5.74%
Cc1cc2oc(=O)c(CC(=O)NCCCO)c(C)c2c2occ(C(C)(C)C)c12	12.2%
CCOC(=O)c1c(NC(=O)COC(=O)c2nc(Cl)ccc2Cl)sc2c1CCC2	8.79%
CN(C(=O)CCNC(=O)Cn1cnc2ccccc2c1=O)c1ccc(F)cc1	12.8%
Cc1nc(N2CCN(c3ccccn3)CC2)c2c(C)c(C(=O)Nc3ccc(F)c(Cl)c3)sc2n1	19%
CC(C)c1ccc(NC(=O)C2CCN(c3ncnc4c3nc3n4CCCCC3)CC2)cc1	19%
O=[N+]([O-])c1cc(Br)c(O)c(/C=N/Nc2nnnn2-c2cccc3ccccc23)c1	-4.85%
COc1ccc(Nc2ncnc3sccc23)cc1OC	5.92%

Compound	hERG current change (%, negative = inhibition) at 1uM
Cc1ccc(N2CC(C(=O)Nc3nnc(C)s3)CC2=O)cc1 (stereo not shown)	7.69%
CN1C(=O)c2cccc(N(C)C)c2C1=O	8.8%
N#CC1(Nc2cccc(Br)c2)C(=O)Nc2ccccc21 (stereo not shown)	12.2%
COc1c(Cl)cnn(-c2ccccc2)c1=O	5.7%
CCOc1cc(S(=O)(=O)n2ccc(C)n2)ccc1Br	11.7%
Cc1cscn1	4.07%
CCOC(=O)C1CCN(C(=O)C2CCCN2S(=O)(=O)c2ccc(Cl)cc2)CC1 (stereo not shown)	9.14%
CCOc1ccc(CCNC(=O)c2nnn(CC(=O)Nc3ccc(OC)cc3)c2N)cc1OCC	24.6%
COc1ccc(C(C(=O)NCCC(C)C)N(CCO)C(=O)c2snc(C(N)=O)c2N)cc1 (stereo not shown)	13.8%
COCc1ccc(C(=O)NC2CCSc3ccccc32)cc1 (stereo not shown)	2.7%
O=C1C=C(N2CCCCCC2)C(=O)N1c1ccc(Cl)cc1	10.4%
Cc1nc2ccccc2c(=O)n1CCN1CCOCC1	11.5%
CCOc1ccc(OCCC(=O)N(CCC(C)C)c2c(N)n(Cc3ccccc3)c(=O)[nH]c2=O)cc1	13.9%
Cc1nc2ccccn2c1C(=O)N/N=C/c1ccccc1Cl	6.06%
CN(C)c1ccc(Nc2nc(-c3cccnc3)cs2)cc1	11.8%
O=C1c2cccc3c([N+](=O)[O-])ccc(c23)C(=O)N1c1ccc(Cl)cn1	9.32%
C/C(=N\Nc1cc(N2CCOCC2)nc(C)n1)c1cccc([N+](=O)[O-])c1	-12.6%
O=[N+]([O-])c1cccc(-c2nn(-c3ccccc3)cc2CO)c1	11.7%
Nc1nc(-c2ccccc2)c(N=Nc2cccc3ccccc23)s1	9.08%
O=C(NCCCc1nc2ccccc2[nH]1)c1ccco1	20.1%
Cc1ccc(-c2nc(CS(=O)(=O)CC(=O)NC3CCC(C)CC3)c(C)o2)cc1 (stereo not shown)	9.35%
Cc1cccc(C(=O)Nc2scc(-c3ccc(Br)cc3)c2C(=O)O)c1	15.9%
